Data on 19 variants can be found in the RNAGym collection of RNA variant scans (doi:10.1073/pnas.2313332121).

The chains are these.
B1: TPR 5TU (parent)
chain: GGAUCUUCUCGAUCUAACAAAAAAGACAAAUCUGCCACAAAGCUUGAGAGCAUCUUCGGAUGCAGAGGCGGCAGCCUUCGGUGGCGCGAUAGCGCCAACGUUCUCAACUAUGACACGCAAAACGCGUGCUCCGUUGAAUGGAGUUUAUCAUG

Variants at the background level are over-represented here.

Variants of B1 are the subject of the data set. Kind of data set: polymerase ribozyme fitness, log enrichment relative to wild type (log ratio); higher = more active; in vitro selection for triplet polymerase activity. The gist of the method: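 Each subunit of a heterodimeric triplet polymerase ribozyme was represented by a PCR-built, transcribed mutant library that underwent triplicate single-round in vitro selection with frozen incubation at −7 °C. Extended constructs were recovered by gel excision, streptavidin-bead capture and RT-PCR, and Illumina sequencing of input and output libraries kept genotypes with ≥10 input reads and ≥1 read per output. Fitness is the logarithm of genotype enrichment relative to wild-type enrichment, from inverse-variance-weighted replicate averages, with a logarithm base of 2.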
With GGAUCUUCUCGAUCUAACAAAAAAGACAAGUCUGCCACAAAGCUUGAGAGCAUCUUCGGAUGCAGAGGCGGCAGCCUUCGGUAGCGCGAUCGCGCCAAGGUUCUCAACUAUGACACGCAAAACGCGUGCUCCGUUGAAUGGAGUUUCUCAUG [A30G G83A A91C C99G A147C], the “polymerase ribozyme fitness (log ratio)” value is at most -4.2.
Take GGAUCUUCUCGAUCUAACAAAAAAGACAAUUCUGCCACAAAGUUUGAGAGCAUCUUCGAAUGCAGAGGCGGCAGCCCUCGGUGGCGCGAUAGCGCCAACGUUCUCAACGAUGACACGCAAAACGCGUGCUCCGUUGAAUGGAGUUUAUCAUG [A30U C43U G59A U77C U109G]: the “polymerase ribozyme fitness (log ratio)” value is at most -4.2.
The result for GGAUCUUCUCGAUCUAACAAAAAAGACAAGUCUGCCACAAAGCUUGAGAGCAUCUACGGAUGCAGAGGCGGCAGCCUUCGGUGGGGCGAUAGCGCCAACGUUCUCAACUAUGACACGCAAAACGCGUGCUCUGUUGAAUGGAGUUUAUCAUG [A30G U56A C85G C132U] reads at most -4.2; that for GGAUCUUCUCGAUCUAACAAAAAAGACAAUUCUGCCACAAAGCUUGAGAGCAUCUUCGGAUGCAGAGGCGGCAGCCUUCGGUGGCGCGAUAGCGCCAACGUUCUCAACUAUGACACGCAAAUCGCGUGCUCCGUUGAAUGGAGUUUAUCAUG [A30U A122U], -2.62; that for GGAUCUUCUCGAUCUAACAAAAAAGACAAUUCUGCCACAAAGCUUGCGAACAUGUUCGGAUGCAGAGGCGGCAGCCUUCGGUGGCGCGAUACCGCCAACGUUCUCAACUAUGACACGCAAAAGGCGUGCUCCGUUGAAUGGAGUUUAUCAUG [A30U A47C G50A C54G G92C C123G], at most -4.2.
Regarding GGAUCUUCUCGAUCUAACAAAAAAGACAAUUCUGCCACAAAGCUUGAGAGCAUCUUCGGAUGCAGCGACGGCAGCCUUCGGUGGCGAGAUAGCGCCAACGUUCUCAACUAUGACACGCAAAACGCGUGCUCCGUUGAAUGGAGUUUAUCAUG [A30U A66C G68A C87A], the “polymerase ribozyme fitness (log ratio)” value is at most -4.2.
The value for GGAUCUUCUCGAUCUAACAAAAAAGACAAUUCUGCCACAAAGCUUGAGAGCAUCUUAGGAUGCAGAGGCGGCGGCCUUCGCUGGCGCGAUAUCGCCAACGUUCUCAACUAUGACACGCAAAACGCGUGCUCCGUUGAAUGAAGUUUAACAUG [A30U C57A A73G G81C G92U G141A U148A] was at most -4.2.
With GGAUCUUCUCGAUCUAACAAAAAAGACAAUUCUGCCCCAAAGCUUGAGACCAUCUUCGGAUGCAGAGGCGGCAGCCUUCGGUGGCGCGAUGGCGCCAACGUUCUCAACUAUGACACGCAAAACGCGUGCUCCGUUGAAUGGAGUUUAUCGUG [A30U A37C G50C A91G A150G], the “polymerase ribozyme fitness (log ratio)” value was at most -4.2.
The result for GGAUCUUCUCGAUCUAACAAAAAAGACAAGUCUGCCACAAAGCAUGAGAGCAUCUUCGGAAGCAGAGGCGGCAGCCUUCGGUGGCGCGAUAGCGUCAACGUCAUCAACGAUGACACGCAAAACGCGUGCUCCGUUUAAUGGAGUUUAUCAUG [A30G U44A U61A C95U U102C C103A U109G G136U] reads at most -4.2.
For the variant GGAUCUUCUCGAUCUAACAAAAAAGACAAUUCUGCCACAAAGCUUGAGAGAAUCUUCGGAUGCAGAGGCGGCGGCCUUCGGUGGCGCGAUAGCGCCAACGUUCUCAACUAUGACACGCAAAACGCGUGCUCCGUUGAAUGGAGUUUAUCAUG [A30U C51A A73G], the “polymerase ribozyme fitness (log ratio)” value is at most -4.2.
As to GGAUCUUCUCGAUCUAACAAAAAAGACAAUUCUGCCACAUAGCUUGAGAGCAUCAUCGGAUGCAGAGGCGGUAGCCUUCGGUGUCGAGUUAGCGCCAACGUUCUCAACUAUGACACUCAAAACGGGUGCUCCGUUGAAUGGAGUUUAUCAUG [A30U A40U U55A C72U G84U C87A A89U G117U C125G], the “polymerase ribozyme fitness (log ratio)” value is at most -4.2.
Regarding GGAUCUUCUCGAUCUAACAAAAAAGACAAUUCUGCUACAAAGCUUGAGAGCAUCUUCGGAUGCAGAGGCGGCAGCCUUCUGUGGCGAGAUUGCGCCAACGUUCUCAACUAUGACAGGCAAAACGCGUGCUCCGUUGAAUGGAGUUUAUCAUG [A30U C36U G80U C87A A91U C116G], the “polymerase ribozyme fitness (log ratio)” value was at most -4.2.
The result for GGAUCUUCUCGAUCUAACAAAAAAGACAAUUCUGCCACAACGCUUGAGAGCAUCUUCGGAUGCAGAGGCGGCAGCCUUCGGUGGCGCGAUAGCGCGAACUUUCUCAACUAUGACACGCAAAACGCGUGCUCCGUUGAAUGGAGUUUAUCAUG [A30U A41C C96G G100U] reads at most -4.2; that for GGAUCUUCUCGAUCUAACAAAAAAGACAAUUCUGCCCCAAAGCUUGAGAGCCUCUUCGGGUGCAGAGGCGGCAGCCUUCGGUGACGCGAUCGCGCCAACGUUCUCAACUAUGACAAGCAAAAGGCGUGCUCCGAUGAAUGGAGUUUAUCAUG [A30U A37C A52C A60G G84A A91C C116A C123G U134A], at most -4.2.
As to GGAUCUUCUCGAUCUAACAAAAAAGACAAUUCUGCCACAAAGCUUGAGAGCGUCUUCAGAUGCAGAGGCUGCAGCCUUUGGUAGCGCGAUAGUGCCAACGUUCUCAACUAUGACACGCAAAACGCGUGCUCCGUUGAAUGGAGUUUAUCAUG [A30U A52G G58A G70U C79U G83A C93U], the “polymerase ribozyme fitness (log ratio)” value is at most -4.2.
Consider GGAUCUUCUCGAUCUAACAAAAAAGACAAUUCUGCCACAAAGCUUGAGAGCAUCUUCGGAUGCAGAGGCGGCAGCCUUCGGUGGCGCGAUUGCGCCAACGUUCUCAACUAUGACACGCAAAACGCGUGCUCCGUUGAAUGGAGUUUAUCAUG [A30U A91U], for which the “polymerase ribozyme fitness (log ratio)” value was at most -4.2.
Take GGAUCUUCUCGAUCUAACAAAAAAGACAAUUCUGCCAUAAAGCUUGAGAGCAUCUUCGGAUGCAGAGGCGGCAGCCUUCGGUGGCGCGAUAGCGCCAACGUUCUCAACUAUGACACGCAAAACGCGUGCUCCGUUGAAUGGAGUUUAUCAUG [A30U C38U]: the “polymerase ribozyme fitness (log ratio)” value was -3.76.
Take GGAUCUUCUCGAUCUAACAAAAAAGACAAUUGUGCCACAAAGCAUGAGAGCAUCUUCGGAUCCAGAGGCGGCAGCCUUCGGUGGCGCGAUAGCGCCAACGUUCUCAACUAUGACACGCAAAACGCGUGCUCCGUUGAAUGGAGUUUAUCAUG [A30U C32G U44A G62C]: the “polymerase ribozyme fitness (log ratio)” value is at most -4.2.
For GGAUCUUCUCGAUCUAACAAAAAAGACAAUUCUGCCACAAAGCUUGAGAGCAUCUUCGGAUGCAGAGGUGGCAGGCUUCGGUGGCGCGAUAGCGCCAAAGUUCUCAACUAUGACACGCAAAACGCGUGCUCCGUUGAAUGGAGUUUAUCAUG [A30U C69U C75G C99A], the “polymerase ribozyme fitness (log ratio)” value was at most -4.2.
